Laboratory results from PubChem BioAssay AID686978 (National Center for Advancing Translational Sciences (NCATS), 2013).
Values joined by “and” are separate entries in the source; they are usually repeats but may differ in a detail not shown here. Equal entries are not always repeated. Screen size: about 420,000 compounds; about 64,000 (15%) were called active. The shares of active, inactive and inconclusive entries below differ from those in the screen. The call rests on the fitted dose curve; in most records, active means well fitted inhibition curve with a large enough effect; inconclusive means small, poorly fitted or top-dose-only effect; inactive means flat fitted curve, though single readings scatter. Potencies of inconclusive entries are doubtful fits and often do not repeat.

Test: qHTS for Inhibitors of human tyrosyl-DNA phosphodiesterase 1 (TDP1): qHTS in cells in absence of CPT; further: nearly all actives have a fitted effect of over 55% in size
Details: DT40 Tdp1-/- hTDP1 cells, no CPT, ATP luminescence, 48 h; activity change, negative = growth inhibition: at 46.2 µM (top of the series)
In short: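 Stably hTDP1-transfected Tdp1-null chicken DT40 cells were treated with library compounds minus camptothecin and grown for at least 48 hr at 37 °C, after which cellular ATP was quantified by luminescence.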
On the % scale 0 is the no-effect control and ±100 the full control effect; potency means the concentration at half of the fitted maximal effect; tags describe the fitted curve by direction and shape.

| Compound | Potency | activity change, negative = growth inhibition |
| --- | --- | --- |
| CC(C)c1ccc(NC(=O)C(c2ccccc2)N2CCC3(CC2)OCCO3)cc1 (centres undefined) | inconclusive: 23.1 µM [inhibitor, single point] | – |
| COCCOC(=O)c1c(C)n(C)c2ccc(OC(=O)N3CCOCC3)cc12 | – | inactive: -20.4% |
| CN1CCCCC1CCN1c2ccccc2Sc2ccc(S(C)=O)cc21 (centres undefined) | inconclusive: 33.5 µM [inhibitor, single point] and inconclusive: 29.1 µM [inhibitor, single point] | – |
| CC(Oc1ccc(Cl)cc1)C(=O)Nc1ccc(S(=O)(=O)N2CCOCC2)cc1 (centres undefined) | inconclusive: 23.1 µM [inhibitor, single point] | – |
| Cc1cccc(C(=O)NC(NCCc2ccccc2)C(Cl)(Cl)Cl)c1 (centres undefined) | inconclusive: 18.4 µM [inhibitor, single point] | – |
| Cc1ccc(NC(=S)N/N=C/c2cccn2Cc2ccccc2F)cc1 | active: 3.66 µM | – |
| COc1ccc(-c2cc(C(=O)N3CCCCCC3)c3ccccc3n2)c(OC)c1 | active: 11.6 µM | – |
| CCC(=O)NC(=S)Nc1ccc(NC(=O)c2cc3ccccc3o2)c(OC)c1 | inconclusive: 13 µM [inhibitor, partial curve] | – |
| CCOCCCNC(=O)C(=O)Nc1c2c(nn1-c1ccccc1)CSC2 | – | inactive: -18.8% |
| O=C(COc1ccc(Cl)cc1)NCC(c1ccco1)S(=O)(=O)c1ccc(F)cc1 (centres undefined) | inconclusive: 16.4 µM [inhibitor, single point] | – |
| CN(C)S(=O)(=O)N1CCc2ccc(NC(=O)c3ccccc3Cl)cc2C1 | inconclusive: 8.2 µM [inhibitor, partial curve] | – |
| CCOC(=O)c1cc(S(=O)(=O)N2CCc3ccccc32)cn1C | active: 2.31 µM | – |
| CN1C(=O)C(O)(CC(=O)c2cccc(-n3cccc3)c2)c2ccccc21 (centres undefined) | inconclusive: 29.1 µM [inhibitor, single point] | – |
| CN(C)c1ncc2nc(-c3ccccc3)c(=O)n(CCC#N)c2n1 | – | inactive: -1.57% |
| COc1ccc(CNC(=O)c2cc3cccc4c3n2CC(C)S4)cc1OC (centres undefined) | active: 23.1 µM | – |
| O=S(=O)(NCC1CCN(c2ccc(S(=O)(=O)N3CCOCC3)cc2)CC1)c1ccccc1 | inconclusive: 16.4 µM [inhibitor, partial curve, poor fit] | – |
| O=C(CCNS(=O)(=O)c1ccccc1C(F)(F)F)Nc1ccncc1 | – | inactive: 4.83% |
| COCCCn1c(=O)c2sccc2n2c(CCCC(=O)Nc3cccc(OC)c3)nnc12 | inconclusive: 23.1 µM [inhibitor, single point] | – |
| Cc1ccc2c(c1)N(S(=O)(=O)c1ccc(CN3C(=O)c4cccnc4C3=O)s1)CCO2 | – | inactive: 12.4% |
| O=[N+]([O-])c1ccc2c(c1)CO[C@@]21O[C@H](CCO)C[C@H](O)[C@H]1O | inconclusive: 0.0326 µM [inhibitor, full curve] | – |
| Cc1nc([N+](=O)[O-])cn1Cc1cccc([N+](=O)[O-])c1 | inconclusive: 8.2 µM [inhibitor, partial curve] | – |
| COc1ccccc1Cn1c(=S)[nH]c2ccc(F)cc2c1=O | – | inactive: -17.2% |

| Compound | Potency | activity change, negative = growth inhibition |
| --- | --- | --- |
| CCC(C)(C)n1nnnc1C(c1ccc(C)cc1)N1CCN(Cc2cccnc2)CC1 (centres undefined) | inconclusive: 9.2 µM [inhibitor, partial curve] | – |
| Cc1ccc2cc(C)c(SCC(=O)NCc3ccco3)nc2c1 | inconclusive: 16.4 µM [inhibitor, single point] | – |
| Cc1ccccc1OCC(=O)Nc1ccccc1N1CCCCC1 | active: 20.6 µM | – |
| O=C(COc1ccc(Br)cc1)N/N=C1/SCC(=O)N1Cc1ccco1 | inconclusive: 29.1 µM [inhibitor, single point] | – |
| Cc1ccc(CNS(=O)(=O)c2ccc3[nH]c4c(c3c2)CCCCC4)cc1 | active: 14.6 µM | – |
| Nc1c2c(nc3cccc(Cl)c13)N(c1ccccc1)CC2 | – | inactive: -11.9% |
| Nc1c(-c2ccc3c(c2)OCCO3)oc2ccccc2c1=O | inconclusive: 29.1 µM [inhibitor, single point] | – |
| COc1cc(NC(=O)COC(=O)CNC(=O)c2ccc(C)s2)cc(OC)c1 | inconclusive: 25.9 µM [inhibitor, single point] | – |
| Cc1ccc(C)c(Nc2c([N+](=O)[O-])cc(C(=O)N3CC(=O)Nc4ccccc43)cc2[N+](=O)[O-])c1 | inconclusive: 29.1 µM [inhibitor, single point] | – |
| COC(=O)C1=C(N)Oc2cc(C)n(Cc3ccccc3)c(=O)c2C1c1ccccc1 (centres undefined) | – | inactive: 6.78% |
| CN(C)C(=O)CCN1CCOCC1 | – | inconclusive: -31.1% [inhibitor] |
| CCN(CC)S(=O)(=O)c1ccc(-c2nnc(SCc3nnc(-c4ccc(C)cc4)o3)o2)cc1 | – | inactive: -26% |
| COc1cc(CCC(=O)OCC(=O)c2ccc[nH]2)cc(OC)c1OC | – | inconclusive: -8.42% [inhibitor] |
| CCOC(=O)C1CCCCN1Cc1cc(Cl)ccc1O (centres undefined) | inconclusive: 29.1 µM [inhibitor, single point] | – |
| CC1(C(=O)NS(=O)(=O)c2ccc(F)cc2F)CCN1C(=O)c1ccccc1 (centres undefined) | – | inactive: -13% |
| Cc1cc(-c2ccc(C)c(S(=O)(=O)N3CCN(c4ccc(F)cc4)CC3)c2)on1 | inconclusive: 20.6 µM [inhibitor, single point] | – |
| Cc1cc(C)nc(SCc2ccc(C(=O)NN=C3C4CC5CC(C4)CC3C5)cc2)n1 | inconclusive: 29.1 µM [inhibitor, single point] | – |
| O=S(=O)(/N=C(/Nc1cccc2ccccc12)c1ccc(F)cc1)c1ccccc1 | inconclusive: 29.1 µM [inhibitor, single point] | – |
| O=C(CCN1C(=O)/C(=C/c2ccccc2Cl)SC1=S)NN1CCOCC1 | inconclusive: 29.1 µM [inhibitor, single point] | – |
| COc1ccc(Cl)cc1NC(=O)Cn1nc(C(F)(F)F)c2c1CCCC2 | inconclusive: 29.1 µM [inhibitor, single point] | – |
| O=C(CCn1c(=O)c2cccn2c2ccc(F)cc21)NCc1cccc(F)c1 | inconclusive: 10.3 µM [inhibitor, partial curve] | – |
| COCCNC(=O)C1CCCN(C(=O)COc2ccc(C(C)(C)C)cc2)CC1 (centres undefined) | – | inconclusive: -30.2% [inhibitor] |
